Test results from paper PMC4242493.
The other results are listed elsewhere or left out. The list includes weakly bound sequences.

Biological target: MaxL homodimer (UniProt P61244)
Assay: universal protein-binding microarray (PBM)
Settings: PBS-based mixture, 10 nM His-tagged protein dimer, 2% milk, 200 ng/uL BSA, 50 ng/uL salmon testes DNA, 0.02% TX-100; detection with Alexa 488 anti-His …; high values mean tight binding; most listed sequences are background and not binding sites; double strand, one strand shown

Sequence of UniProt P61244 (P61244 whole entry): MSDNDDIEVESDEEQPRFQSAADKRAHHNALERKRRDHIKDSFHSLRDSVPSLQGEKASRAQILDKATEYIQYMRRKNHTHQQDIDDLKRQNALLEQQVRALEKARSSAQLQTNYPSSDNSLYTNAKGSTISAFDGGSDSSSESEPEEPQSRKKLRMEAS

Sequence	binding signal (normalized occupancy)
CATGCCGA	0.102
ACGTGGTC	0.106
AACTCTTA	0.0707
CCTCTATC	0.0748
TAATCGAA	0.079
GCGCTGAC	0.0768
ATAATCAC	0.0829
ACCTGGTC	0.0739
TGATCGCA	0.0847
GGTCTAAC	0.0697
GACCAGGC	0.0752
ACAAGTTG	0.0751
AGGGGCTC	0.073
CATCTGAC	0.0791
AAAGTAAA	0.0701
GCCCACCA	0.0804
CATTGATA	0.078
CTTGCCTA	0.0693
GCAACCGC	0.068
AATACACA	0.0926
TAACAGCA	0.0789
ACCGATTC	0.0693

Sequence	binding signal (normalized occupancy)
ACTGAACT	0.0716
AGCGGTGC	0.0675
CATTTTGC	0.0761
GCTATATA	0.0859
AGGGGTGC	0.0846
CAACTATC	0.0737
CGTAGCGC	0.0712
CACATATC	0.0837
AATTTTCA	0.0736
AAGCACCA	0.0761
CTCTTTAA	0.0713
GGTCCCTA	0.0685
AGAGCTTG	0.0716
CCACCAGC	0.0738
ACTTCATA	0.0773
AAAGCACC	0.0715
CGCTCCGC	0.0639
CATTCCTA	0.0755
CGGCTGGC	0.0661
GCTAGCAC	0.074
CCGGCAAC	0.0711
AGTAATTC	0.075

Sequence	binding signal (normalized occupancy)
CTCTGACC	0.0702
AAGAAGGC	0.0751
TGACACCA	0.0783
CAGAGGAC	0.0665
GACGAATA	0.0754
ACCCATAT	0.088
CAACTTCA	0.0784
GGCTGGGA	0.0757
GTCGTCAC	0.0812
CCAACGAC	0.0765
CACGGGAG	0.0792
CGCCGCCC	0.0695
TAATGGGA	0.076
CAAACCGA	0.0737
ATGCGCGA	0.0781
ATTCTCAC	0.0833
GAAATTTC	0.0689
ACCCGTCT	0.0741
GACTTCCC	0.0716
GCCTAGCA	0.0681
AGCGTTTA	0.0743
AATCCCTC	0.0712

Sequence	binding signal (normalized occupancy)
AGACCCCT	0.0755
ATATGCAG	0.0833
AAGTATAT	0.0749
CAAAGACC	0.0706
CGTCCCAG	0.0755
CACAGCGC	0.0708
GCATTAGA	0.0735
AAGCTTGG	0.0674
GCCGTCAA	0.0726
AAATTGTG	0.0741
ACTCTTTC	0.0667
ATGCTAAA	0.0751
TGACTGCA	0.0743
ACCAAGTC	0.071
ACAAGTTC	0.0695
ATCATAGG	0.0774
ATATTTTG	0.0779
TCTCCGCA	0.0723
ACTTCCGC	0.0759
CCAGGTTA	0.0778
